# Laboratory results: PubChem BioAssay AID504374 (National Center for Advancing Translational Sciences (NCATS), 2011)
# Screen size: about 1,500 compounds; about 100 (6.7%) were called active. Another 7% or so got no clear call; they are omitted. Calls follow the shape of the dose curve; as a rule, active = well fitted inhibition curve with a large enough effect; inconclusive = small, poorly fitted or top-dose-only effect, or effect the other way; inactive = flat fitted curve, though single readings scatter. The list shows a part of the results.
# Molecular target: Runt-related transcription factor 1 (Homo sapiens) + Core-binding factor subunit beta (Homo sapiens) (UniProt Q01196+Q13951)
# Assay: qHTS Assay for Compounds Blocking the Interaction Between CBF-beta and RUNX1 for the Treatment of Acute Myeloid Leukemia: Hit Validation; also: nearly all actives have a fitted effect of over 60% in size
# Settings: AlphaScreen CBFb-His/RUNX1-biotin binding; series mostly up to 59.8 µM; activity, negative = inhibition: at the top concentration
# Procedure, shortened: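 Compounds were added to a premixed CBF-beta-His/RUNX1-biotin complex (30 nM each, 20 min) for 15 min. Nickel and streptavidin AlphaScreen beads followed for 90 min at room temperature, with emission at 440 nm […].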
# % is scaled to controls: 0 for no effect and ±100 for the full control effect; potency is read from the fitted curve at half-maximal effect.
# Sequence of UniProt Q01196 (Q01196 whole entry, looked up): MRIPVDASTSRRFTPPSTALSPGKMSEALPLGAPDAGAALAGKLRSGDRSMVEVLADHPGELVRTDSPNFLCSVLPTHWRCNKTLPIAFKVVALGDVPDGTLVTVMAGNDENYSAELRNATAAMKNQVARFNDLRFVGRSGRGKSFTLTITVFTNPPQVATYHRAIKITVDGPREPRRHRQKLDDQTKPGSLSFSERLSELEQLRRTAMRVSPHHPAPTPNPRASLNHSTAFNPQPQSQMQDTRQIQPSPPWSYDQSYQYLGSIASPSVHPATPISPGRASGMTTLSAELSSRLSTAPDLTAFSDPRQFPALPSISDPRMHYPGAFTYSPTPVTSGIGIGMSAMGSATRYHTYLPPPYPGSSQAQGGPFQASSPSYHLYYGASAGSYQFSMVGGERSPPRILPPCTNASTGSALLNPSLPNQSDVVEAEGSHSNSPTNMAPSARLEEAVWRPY
# Sequence of UniProt Q01196 (Q13951 whole entry, looked up): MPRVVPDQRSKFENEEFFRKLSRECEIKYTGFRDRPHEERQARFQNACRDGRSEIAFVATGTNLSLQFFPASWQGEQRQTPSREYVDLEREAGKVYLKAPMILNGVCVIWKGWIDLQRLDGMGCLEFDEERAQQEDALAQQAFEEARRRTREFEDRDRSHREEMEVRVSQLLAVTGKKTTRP
Structure (SMILES),"activity, negative = inhibition",Potency
Cc1onc(-c2c(F)cccc2Cl)c1C(=O)N1CCSCC1,inactive: -1.82%,
C=CCc1cc(Cl)ccc1OC(=O)Nc1cccc(Cl)c1,inactive: 0.381%,
N#Cc1c(-c2cccnc2)c2c([nH]c1=O)-c1ccccc1OC2,inactive: -1.28%,
CCOC(=O)C1CC(C)=C(C)CC1C(=O)O (stereo not given),inactive: 6.48%,
O=C(O)/C=C/C(=O)Nc1ccc(N2CCOCC2)nc1N1CCOCC1,inactive: -5.08%,
Nc1cccnc1Oc1ccccc1F,inactive: -2.77%,
CC(=O)Nc1ccc(OCCOc2ccc([N+](=O)[O-])cc2)cc1,inactive: 0.185%,
O=C(O)/C=C/C(=O)Nc1ccc(OC(F)(F)F)cc1,inactive: -2.16%,
N#C/C(=C\c1cccnc1)c1ccc(Br)cc1,inactive: 3.21%,
CN(C)c1cc(-c2ccc(F)cc2)oc(=O)c1Cl,inactive: 0.27%,
Cc1nn2c(NCCOCCO)c3c(nc2c1-c1ccccc1)CCC3,inactive: -12.7%,
CSc1cccc(NC(=O)Nc2ccccc2C(N)=O)c1,inactive: 5.85%,
COc1cc(OC)c(C2C(C#N)=C(C)NC(C)=C2C#N)c(C(=O)O)c1,inactive: -1.53%,
c1csc(-c2nc3ccccc3s2)c1,inactive: 1.21%,
Cc1onc(-c2c(Cl)cccc2Cl)c1C(=O)Nc1nc(C(C)(C)C)cs1,inactive: -1.93%,
COC(=O)c1[nH]c(C)c(/C(O)=C2\C(=O)C(=O)N(CCN3CCOCC3)C2c2ccc(C)o2)c1C (stereo not given),inactive: 2.91%,
O=C(O)c1cc(O)c2c(c1)[C@H]([C@H]1c3cc(C(=O)O)cc(O)c3C(=O)c3c(O[C@@H]4OC(CO)C(O)C(O)C4O)cccc31)c1cccc(O[C@@H]3OC(CO)C(O)C(O)C3O)c1C2=O (stereo not given in full),,active: 0.562 µM
O=C(/C=C/c1cn(CC(O)CN2CCCCC2)c2ccccc12)c1ccccc1 (stereo not given),inactive: 2.12%,
CNS(=O)(=O)c1ccc2ccccc2c1,inactive: 12.8%,
Cc1ccc(Cl)cc1NC(=S)N(CCN(C)C)C(C)c1ccccn1 (stereo not given),,active: 5.46 µM
CN(C)CCCNc1cc(C(C)(C)C)nc2c(-c3ccccc3)cnn12,inactive: 10.4%,
COC(=O)c1sccc1NC(=O)CC1C(=O)NCCN1C(=O)Nc1ccccc1 (stereo not given),inactive: -8.31%,
COc1cccc(/C=N/NC(=O)c2ccc3nc[nH]c3c2)c1,inactive: -11.7%,
NC(=O)c1c(NC(=O)Cn2nc(C(=O)O)c3ccccc3c2=O)sc2c1CCCC2,inactive: 3.13%,
CC(=O)N1N=C2c3ccccc3CCC2C1c1cccs1 (stereo not given),inactive: -2%,
CC(=O)c1cc(O)c2ccccc2c1O,inactive: -21.8%,
NNC(=O)c1ccc(COc2cccc3ccccc23)o1,inactive: -8.99%,
O=C(O)c1ccccc1C1Nc2ccccc2C(=O)N1CCCN1CCOCC1 (stereo not given),inactive: -13.6%,

Structure (SMILES),"activity, negative = inhibition",Potency
CCOC(=O)c1c(C)n(C)c2ccc(OC)c(NC(=O)CCN3CCC(Cc4ccccc4)CC3)c12,inactive: -15.5%,
CCOc1ccc(C2C3=C(CCCC3=O)OC(N)=C2[N+](=O)[O-])cc1 (stereo not given),inactive: 0.702%,
CC(C)NC(=O)NNC(=O)Cn1nnc(-c2cccc(Cl)c2Cl)n1,inactive: 2.92%,
CC1CC(OC(=O)CN2CCCCC2)CC(C)(C)C1 (stereo not given),inactive: -3.89%,
COC(=O)c1cnc(Nc2cccc(C(F)(F)F)c2)c([N+](=O)[O-])c1,inactive: -3.85%,
CC(O)(c1ccccc1)C(c1ccccc1)C1CCCCN1 (stereo not given),inactive: -1.46%,
O=C(Oc1ccc(NC(=O)c2cc3c(cc2Br)OCO3)cc1)c1ccccc1,inactive: -0.228%,
O=C1CC(N2CCN(S(=O)(=O)c3ccccc3)CC2)C(=O)N1c1ccccc1 (stereo not given),inactive: 7.99%,
CCOC(=O)C1(C)C=C(Nc2cccc(OC)c2)C(=O)N1c1ccccc1 (stereo not given),inactive: -13%,
Cc1ccnn1CC(=O)N/N=C/c1cn[nH]c1-c1ccccc1,inactive: 3.97%,
Cc1cccc(CSc2nnc([C@@H]3CCCN3)o2)c1,inactive: -7.5%,
Cc1nnc(NC(=O)c2ccccc2NC(=O)c2ccccc2)s1,inactive: -3.42%,
O=C(O)CCC(=O)NCC(=O)c1ccc(F)cc1,inactive: 7.94%,
CCc1ccc(/C=N/N2CCN(c3ccccn3)CC2)cc1,inactive: -12%,
Nc1ccc(C(=O)C(=O)c2ccc(N)cc2)cc1,inactive: 4.27%,
O=C(NN1C(=O)/C(=C/c2cccs2)SC1=S)c1cccnc1,inactive: -9.17%,
O=C(O)c1cc2ccccc2cc1Nc1ccccc1,inactive: -13.1%,
Cc1cc(C)n(CC(=O)N/N=C/c2c[nH]c3ccccc23)n1,inactive: 7.23%,
O=C1CC(Sc2ccc(Cl)cc2)C(=O)N1c1ccc2c(c1)OCCO2 (stereo not given),inactive: -12%,
Nc1cc(=O)[nH]c(SCC(=O)Nc2cc(Cl)ccc2Cl)n1,inactive: -10%,
CC(C)(C)c1ccc(CCC2OCC(C[N+]3(C)CCOCC3)O2)cc1 (stereo not given),inactive: -2.73%,
CC(C)(NC(=O)c1cc(Cl)c2ccccc2c1O)C(=O)O,inactive: -1.91%,
Cc1onc(-c2c(Cl)cccc2Cl)c1C(=O)N=C(N)N1CC(C)OC(C)C1 (stereo not given),inactive: 1.53%,
O=c1[nH]c(CSc2cccc[n+]2[O-])nc2ccccc12,inactive: -0.257%,
Oc1ccc2ccccc2c1C=Nc1ccccc1,inactive: -2.72%,
Nn1c(SCc2cccc(Br)c2)nnc1-c1cccnc1,inactive: -0.468%,
CCOC(=O)CN1NC2(CCCCCC2)NC1=S,inactive: -2.8%,
